The other results are listed elsewhere or left out. At the low end of the ranking, values are background and their order means little.

For the experiment, the target named is SIX1-Q177R homeodomain (UniProt Q15475). Nature of the experiment: universal protein binding microarray. Conditions: Universal all-10-mer PBM (8x60K, AMADID 030236), 300 nM GST-tagged protein, Alexa Fluor 488 anti-GST; buffer, salt, pH and temperature not stated; high values mean tight binding; most listed sequences are background and not binding sites; double strand, one strand shown.
As to ACCTTCCT, the binding signal came out at 0.264 E-score.
For CGCAGAGC, the binding signal is -0.153 E-score.
Regarding TCATTAGA, the binding signal came to 0.0173 E-score.
Regarding CGTCGGAC, the binding signal is -0.0258 E-score.
Regarding ATCTTAGG, the binding signal is -0.0398 E-score.
Regarding GAAGCACC, the binding signal was 0.238 E-score.
Take AGTTCACG: the binding signal was -0.186 E-score.
In the case of ATCCTCGA, the binding signal is -0.0809 E-score.
For AGGGTTAC the value was 0.162 E-score; for ACGTAGAC, -0.00903 E-score; for CAAAAGCC, -0.353 E-score.
On to GCTCACTA, for which the binding signal was -0.0167 E-score.
As to AGGCCACG, the binding signal was -0.159 E-score.
On to AAAAGAGG, for which the binding signal was -0.155 E-score.
Take GACTGCAC: the binding signal came to 0.0183 E-score.
With AGAAAGCG, the binding signal is -0.0958 E-score.
On to CCAATAAG, for which the binding signal is -0.18 E-score.
As to CGCAAACA, the binding signal is 0.181 E-score.
For AAGCGGCC, the binding signal was -0.263 E-score.
With CATTCCCG, the binding signal is -0.0983 E-score.
Regarding AAACCGTA, the binding signal was 0.0896 E-score.
As for ACATATCT, the binding signal is -0.18 E-score.
For GTTGACGA the value was 0.0727 E-score; for ACAATGAT, -0.0568 E-score; for AAAGACCA, -0.217 E-score.
Take AAATGGGC: the binding signal was -0.207 E-score.
For the sequence GCCAACCC, the binding signal is 0.0805 E-score.
For the sequence AAAGACGG, the binding signal was -0.0974 E-score.
For GACCGGCC the value was -0.11 E-score; for CCACTTAA, -0.247 E-score.
With GAGATTAC, the binding signal was -0.103 E-score.
As for CGCAAGGC, the binding signal was -0.11 E-score.
As for CGTTTCCA, the binding signal was -0.21 E-score.
Take GTATACCA: the binding signal stood at 0.152 E-score.
In the case of ATTTCTGA, the binding signal is -0.0825 E-score.
With GTGGAGAA the figure was -0.18 E-score.
With AAACACCT, the binding signal was 0.419 E-score.
For CAGTGCTA, the binding signal was determined as 0.129 E-score.
With AGCGTCCA the figure was -0.103 E-score; with AAGCCGTA, -0.165 E-score; with CTTTTTCA, -0.149 E-score.
CTACTATC: the binding signal amounted to 0.0918 E-score.
Take TCCTTCGA: the binding signal is -0.151 E-score.
With CACATTGG, the binding signal is -0.0582 E-score.
On to AGGCGAAT, for which the binding signal was -0.207 E-score.
For CGATAGGA the value was 0.0251 E-score.
For the sequence ATAGGAGC, the binding signal was -0.129 E-score.
For the sequence GATGAGTA, the binding signal was -0.0112 E-score.
AGTTGAAG: the binding signal was -0.0278 E-score.
In the case of ACAGTTCG, the binding signal was -0.046 E-score.
With AATTACAC the figure was 0.433 E-score; with ACGACGGG, 0.0939 E-score; with CTAATTAC, -0.172 E-score.
In the case of GTTGCAAC, the binding signal amounted to 0.102 E-score.
For the sequence CGCGCTCA, the binding signal was -0.125 E-score.
For ACAGTCAG the value was -0.0451 E-score.
Regarding AACGCAAT, the binding signal is -0.139 E-score.
With AGAGATTG the figure was -0.232 E-score; with CGGTGTGA, 0.434 E-score.
For AGAAGGAT, the binding signal was 0.000365 E-score.
In the case of CAAATCTC, the binding signal is -0.359 E-score.
Take ATATTCCC: the binding signal was -0.152 E-score.
Regarding ATTTATTC, the binding signal was -0.237 E-score.
In the case of CCTGCTCA, the binding signal turned out to be 0.0706 E-score.
With GTTTTGCA, the binding signal is -0.0348 E-score.
In the case of GTCGCCAC, the binding signal is -0.127 E-score.
As for CGGCCGAC, the binding signal was -0.09 E-score.
With ACCGGACC, the binding signal came to 0.0277 E-score.
Take TCGACAGA: the binding signal is -0.21 E-score.
With ATTAAGGG the figure was -0.045 E-score; with ACCGGGAG, 0.00208 E-score.
GCTTACAA: the binding signal is -0.0776 E-score.
On to AGATATCT, for which the binding signal was -0.0671 E-score.
Regarding GGAACTTA, the binding signal was -0.137 E-score.
On to CACATAAC, for which the binding signal was found to be 0.138 E-score.
In the case of ACTTTTCT, the binding signal is -0.0979 E-score.
With GAGCCAGC, the binding signal is -0.00754 E-score.
Regarding CACATGTC, the binding signal was -0.148 E-score.
For AGAACACG the value was 0.356 E-score.
For CTTCTTTC, the binding signal is -0.0776 E-score.
On to TACAATAA, for which the binding signal is -0.167 E-score.
For ACAATTTG, the binding signal is -0.119 E-score.
For the sequence GAGTGTAC, the binding signal amounted to 0.419 E-score.
On to ATTAGGTG, for which the binding signal is 0.296 E-score.
With GGGTCTTA, the binding signal stood at 0.102 E-score.
With AAATTAAT, the binding signal was -0.168 E-score.
Regarding ACACACAG, the binding signal amounted to 0.269 E-score.
In the case of TGACAACA, the binding signal amounted to 0.0303 E-score.
For GGAAAAAA, the binding signal was -0.0639 E-score.
Consider AACAAAAA, for which the binding signal was -0.178 E-score.
On to CATAGAGG, for which the binding signal stood at 0.064 E-score.
As to AACCGACG, the binding signal is -0.024 E-score.
Consider GATAATAA, for which the binding signal was -0.0888 E-score.
Regarding CACTGTCG, the binding signal was found to be 0.0527 E-score.
Turning to CACAATAA, the binding signal is -0.104 E-score.
Regarding CAGGTTAG, the binding signal is -0.0344 E-score.
Consider CCACCCCG, for which the binding signal came to 0.246 E-score.
Turning to ACGACCGT, the binding signal was 0.0408 E-score.
Regarding CGCTGCTA, the binding signal is -0.037 E-score.
As to AGCATCTG, the binding signal is -0.152 E-score.
ATGAGTAG: the binding signal is -0.128 E-score.
For CGGTTACG, the binding signal was found to be 0.0204 E-score.
With ACACTAAT, the binding signal came out at 0.333 E-score.
For ATTGTCCC the value was -0.0722 E-score; for CATATGCC, -0.0832 E-score; for AGAGGATG, -0.173 E-score.
With CGACCGAC, the binding signal is -0.033 E-score.
With GTGTTGGA, the binding signal came out at 0.414 E-score.
As to CCAGCTTC, the binding signal is -0.218 E-score.
In the case of CATGCGAG, the binding signal was -0.0083 E-score.
With GTACGATA, the binding signal came out at 0.0992 E-score.
Turning to ATTAGTTA, the binding signal was -0.191 E-score.
Turning to GCAGCCAA, the binding signal was -0.136 E-score.
Turning to AATGCCTA, the binding signal was -0.0522 E-score.
Turning to CATTGCAC, the binding signal was determined as 0.15 E-score.
For the sequence GTGCATAA, the binding signal worked out at 0.0897 E-score.
For the sequence AATATTGC, the binding signal was -0.0771 E-score.
Consider GCCCCGAC, for which the binding signal was determined as 0.0584 E-score.
Turning to AATTGAAG, the binding signal was -0.00216 E-score.
For ACAGCCCA the value was -0.305 E-score.
Regarding ATCAGTCA, the binding signal was -0.129 E-score.
For AAAGAGTT, the binding signal was -0.00821 E-score.
As to CCTAGTAC, the binding signal is 0.0682 E-score.
For CGCTGCAA, the binding signal was -0.188 E-score.
With CTACGGGC the figure was 0.0516 E-score; with CTTTGAAA, -0.179 E-score; with TAAAGGAA, -0.0795 E-score.
For CAGTGCAG, the binding signal is 0.0257 E-score.
Turning to AACCATTG, the binding signal is -0.208 E-score.
With AGGTAGCG, the binding signal was -0.0073 E-score.
For GGGGTGCA the value was 0.273 E-score; for AAACCAAG, -0.0489 E-score.
Take CAGACCCC: the binding signal turned out to be 0.215 E-score.
As to CCTAACGC, the binding signal was -0.0174 E-score.
Regarding CGGCCGCA, the binding signal was -0.139 E-score.
For GAAAATGA the value was 0.000835 E-score; for CAAAAAGA, -0.183 E-score.
Turning to ACCGGCGC, the binding signal is -0.0622 E-score.
CTACCTGC: the binding signal is -0.00962 E-score.
GCTCGAGA: the binding signal was -0.152 E-score.
As for AACACCGG, the binding signal stood at 0.483 E-score.
CATAACCC: the binding signal came out at 0.107 E-score.
For ATCACCTA the value was 0.0265 E-score.
With AACCTTAT the figure was -0.221 E-score; with AACGGGAA, -0.278 E-score.
Consider GATACCGA, for which the binding signal came to 0.214 E-score.
Regarding AAAGAGGC, the binding signal was -0.215 E-score.
As to AAGATTCA, the binding signal is -0.125 E-score.
With ATCGTAGC the figure was -0.0478 E-score; with ATAGATGC, -0.28 E-score.
With CTTAACCC the figure was 0.143 E-score; with CCAGGGTA, 0.243 E-score.
Take CGTTGTGA: the binding signal is -0.11 E-score.
Consider CTGCGAAC, for which the binding signal is -0.215 E-score.
For CCTGAGCG the value was -0.00173 E-score.
Consider ATAGTACG, for which the binding signal was 0.0466 E-score.
For the sequence CTAGCCAC, the binding signal is -0.113 E-score.
With AGTGATGG, the binding signal was 0.0177 E-score.
On to TCTTGCCA, for which the binding signal is -0.0706 E-score.
With TTCACCAA the figure was -0.294 E-score; with CTGGTCTA, -0.136 E-score; with CCATCTAA, -0.0433 E-score.
In the case of ATCTGTAC, the binding signal was 0.0105 E-score.
For CTATCCGA, the binding signal came out at 0.0246 E-score.
In the case of CACAAACC, the binding signal is -0.00515 E-score.
Regarding TCATCTCA, the binding signal was -0.0657 E-score.
On to CATAAGGG, for which the binding signal turned out to be 0.0507 E-score.
On to ACGGGCCT, for which the binding signal was -0.0595 E-score.
For GGTCAGAA the value was -0.069 E-score; for AGCATAGA, -0.0833 E-score; for AATAGATC, -0.157 E-score.
With CCATGTCG the figure was 0.0404 E-score; with CGCCTAGC, 0.0945 E-score.
Regarding AATTATGA, the binding signal is -0.0814 E-score.
With AATCCCCC, the binding signal was found to be 0.0107 E-score.
ATCGTTTA: the binding signal was -0.209 E-score.
For ACGTCAGG the value was -0.0395 E-score; for ACCGCCTA, 0.119 E-score; for AGGTGGTA, 0.13 E-score.
For the sequence TGCATGCA, the binding signal stood at 0.0224 E-score.
AGTGCATC: the binding signal was -0.193 E-score.
ATACACCG: the binding signal worked out at 0.472 E-score.
Consider CGGGTTAG, for which the binding signal was 0.127 E-score.
AAGTAAGC: the binding signal is -0.0488 E-score.
Regarding AACGCAGA, the binding signal was -0.116 E-score.
As for CGAACTCC, the binding signal was 0.132 E-score.
With AGAGCCGG the figure was -0.158 E-score; with GGGTGATA, 0.218 E-score; with TGCAGAAA, -0.135 E-score.
With ATCACTGC the figure was 0.0942 E-score; with AGTATCCG, 0.167 E-score.
On to CACTAACG, for which the binding signal came to 0.2 E-score.
In the case of CTTAAGCA, the binding signal was -0.13 E-score.
As for AGAGCTGA, the binding signal was -0.198 E-score.
For the sequence CGAATCAG, the binding signal was -0.198 E-score.
Regarding TACCTCTA, the binding signal is -0.0328 E-score.
Turning to ATTGTTAA, the binding signal is -0.14 E-score.
Consider AGAAGTCC, for which the binding signal was -0.317 E-score.
Consider CCTCCGCC, for which the binding signal amounted to 0.0752 E-score.
With CAGCCTGC the figure was -0.015 E-score; with ACGGGCAC, 0.0609 E-score.
In the case of CGCTCTCA, the binding signal was -0.178 E-score.
In the case of AACTATTC, the binding signal is -0.144 E-score.
For ATCTGTGG, the binding signal was -0.116 E-score.
With CAGGGGAC the figure was -0.00816 E-score.
On to GTAACCAA, for which the binding signal is -0.00116 E-score.
As for AACCTACT, the binding signal came out at 0.051 E-score.
Turning to GTTTAAAC, the binding signal was 0.344 E-score.
With ACCTTACA the figure was 0.192 E-score; with ATTTTTAA, -0.192 E-score; with AGCCAGCC, -0.179 E-score.
With GGATCGGA the figure was 0.00024 E-score; with CTACGAGA, -0.168 E-score; with AGCTTGTC, -0.208 E-score.
As for CTTAGCCA, the binding signal is -0.119 E-score.
For the sequence ATCTAACA, the binding signal was determined as 0.0933 E-score.
With CCGCTGAC, the binding signal was 0.0373 E-score.
On to GACTATAA, for which the binding signal is -0.101 E-score.
With CCTCCCAG, the binding signal is 0.11 E-score.

These data come from article PMC10668032.
